Reference: US20190315864A1 (SUZHOU ALPHAMAB, published 2019)

Key:
[1] = molecular target: T1, CTLA4-Fc fusion protein (human, biotinylated where used as CTLA4-Fc-Biotin (Examples 5.1-5.3)); assay: ELISA: plate coated with the antibody at 0.5 µg/well, CTLA4-Fc-Biotin titrated, SA-HRP, OD405; value is C of the 4-parameter fit in the table under the plot; x axis has no unit on the sheet, ng/mL by paragraph 218
T1 construct: expressed in HEK293 cells; also called human CTLA4-Fc protein; CTLA4-Fc antigen protein

[2] = molecular target: T1, CTLA4-Fc fusion protein; assay: ELISA: plate coated with the Fc fusion protein at 0.5 µg/well, CTLA4-Fc-Biotin titrated, SA-HRP, OD405; symbols and unit (ng/mL) by paragraph 226, no legend on the sheet
[3] = molecular target: T1, CTLA4-Fc fusion protein; assay: ELISA: plate coated with the Fc fusion protein at 0.5 µg/well, CTLA4-Fc-Biotin titrated, SA-HRP, OD405; value is C of the 4-parameter fit in the table under the plot; x axis has no unit on the sheet, ng/mL by paragraph 221
[4] = molecular target: T2, human CD28 on HEK293 cells (293-CD28-EGFP) (human, UniProt P10747 19-220); assay: flow cytometry on 293-CD28-EGFP cells, anti-hIg-PE [lower row, CD28]
T2 construct: whole, on cells

[5] = molecular target: T3, human PD1 on HEK293 cells (293-PD1-EGFP) (human, UniProt Q15116 25-288); assay: flow cytometry on 293-PD1-EGFP cells, anti-hIg-PE [lower row, PD1]
T3 construct: whole, on cells

[6] = molecular target: T1, CTLA4-Fc fusion protein; assay: ELISA: human CTLA4-Fc coated at 0.5 µg/well, huC1v4-tet-Fc-Biotin titrated, SA-HRP, OD405; symbols by paragraph 238
[7] = molecular target: T4, fusion protein of CTLA4 and mouse Fc (human, UniProt P16410 36-161, limits assumed); assay: SPR, BIAcore X100, antibody captured by anti-human Fc on CM5, CTLA4-mouse Fc as analyte, 25 C, 1:1 model
T4 construct: Analyte of the SPR experiment; also called recombinant human CTLA4

[8] = molecular target: T5, Monkey CTLA4-Fc protein (monkey); assay: ELISA: monkey CTLA4-Fc coated at 0.5 µg/well, huC1v4-tet-Fc-Biotin titrated, SA-HRP, OD405; symbols by paragraph 238
T5 construct: Bought reagent

T1 sequence (chain, as listed by the source limits assumed): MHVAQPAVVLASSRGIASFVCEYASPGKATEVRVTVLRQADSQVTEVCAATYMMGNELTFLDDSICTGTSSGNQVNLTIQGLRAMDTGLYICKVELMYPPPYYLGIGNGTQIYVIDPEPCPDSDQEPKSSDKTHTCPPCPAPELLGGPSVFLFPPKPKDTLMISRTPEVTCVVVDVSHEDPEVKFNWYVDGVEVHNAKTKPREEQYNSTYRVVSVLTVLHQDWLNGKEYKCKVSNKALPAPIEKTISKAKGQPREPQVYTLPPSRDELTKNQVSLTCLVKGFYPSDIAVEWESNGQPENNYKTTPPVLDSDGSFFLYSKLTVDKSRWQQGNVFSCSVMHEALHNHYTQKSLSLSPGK
T4 sequence (P16410 36-161 limits assumed): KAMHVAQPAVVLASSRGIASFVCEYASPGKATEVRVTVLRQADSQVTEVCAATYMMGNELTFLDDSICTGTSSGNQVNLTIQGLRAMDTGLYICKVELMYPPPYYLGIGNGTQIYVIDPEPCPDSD
T3 sequence (Q15116 25-288): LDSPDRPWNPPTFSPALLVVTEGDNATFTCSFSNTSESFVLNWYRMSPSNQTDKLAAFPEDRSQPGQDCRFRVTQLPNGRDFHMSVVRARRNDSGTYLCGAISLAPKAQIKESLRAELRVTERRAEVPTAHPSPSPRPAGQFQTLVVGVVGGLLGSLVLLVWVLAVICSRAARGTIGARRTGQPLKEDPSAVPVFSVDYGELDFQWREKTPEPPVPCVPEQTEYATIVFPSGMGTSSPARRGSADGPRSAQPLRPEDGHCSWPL

Binder | EC50 [1] [mg/L] | EC50 (read off the curve) [2] [mg/L] | EC50 [3] [mg/L] | further results
Fc fusion protein of CTLA4 single-domain antibody No. C27 (Fc fusion, VHH fused to human IgG1 Fc; bivalent homodimer; expressed in HEK293; also called C27-LdFc; unhumanized C27-LdFc) QVQLQESGGGSVQAGGSLRLSCAASGYIYSAYCMGWFRQAPGKERVGVAAISIGGGSTYYADSVKGRFTISQDNAKNTLYLQMNSLKPEDTAMYYCAADVIPTETCLGGSWSGPFGYWGQGTQVTVSSGS[omitted - human IgG1 Fc] | 0.0676 | – | – | –
Fc fusion protein of CTLA4 single-domain antibody No. C1 (Fc fusion, VHH fused to human IgG1 Fc; expressed in HEK293; also called C1-ld-Fc) QVQLQESGGGSVQAGGSLGLSCAASGYIYSAYCMGWFRQAPGKEREGVAAIYLGGGSTYYADSVKGRFTISQDIAKNTLYLQMNSLKPEDTAMYSCAADVIPTETCLGGSWSGPFGYWGQGTQVTVSSGS[omitted - human IgG1 Fc] | – | ~0.08 | 0.026 | –
huC1v4-tet-Fc (Fc fusion, biotinylated in Example 5.6 (huC1v4-tet-Fc-Biotin), Two tandem CTLA4 single domain antibodies and one Fc in each chain; also called huC1v4-tet-Fc-Biotin; tetravalent CTLA4 single domain antibody Fc fusion protein) QVQLVESGGGLVQPGGSLRLSCAASGYIYSAYCMGWFRQAPGKGLEGVAAIYIGGGSTYYADSVKGRFTISRDNSKNTLYLQMNSLRAEDTAVYYCAADVIPTETCLGGSWSGPFGYWGQGTLVTVSSGSQVQLVESGGGLVQPGGSLRLSCAASGYIYSAYCMGWFRQAPGKGLEGVAAIYIGGGSTYYADSVKGRFTISRDNSKNTLYLQMNSLRAEDTAVYYCAADVIPTETCLGGSWSGPFGYWGQGTLVTVSS[omitted - human IgG1 Fc with changes] | – | ~0.1 | – | binding result [4]: no binding; binding result [5]: no binding; EC50 (read off the curve) [6]: ~0.04 mg/L; Kd [7]: 0.19 nM; EC50 (read off the curve) [8]: ~0.04 mg/L
huC27v3-LdFc (Fc fusion, Humanized VHH fused to human IgG1 Fc; bivalent homodimer) QVQLVESGGGLVQPGGSLRLSCAASGYIYSAYCMGWFRQAPGKGLVGVAAISIGGGSTYYADSVKGRFTISRDNSKNTLYLQMNSLRAEDTAVYYCAADVIPTETCLGGSWSGPFGYWGQGTLVTVSS[omitted - human IgG1 Fc] | 0.0682 | – | 0.0307 | –
huC1v4-Ld-Fc (Fc fusion, Humanized VHH C1 variant 4 fused to human IgG1 Fc; bivalent homodimer; also called huC1v4-Fc; bivalent CTLA4 single domain antibody Fc fusion protein) QVQLVESGGGLVQPGGSLRLSCAASGYIYSAYCMGWFRQAPGKGLEGVAAIYIGGGSTYYADSVKGRFTISRDNSKNTLYLQMNSLRAEDTAVYYCAADVIPTETCLGGSWSGPFGYWGQGTLVTVSS[omitted - human IgG1 Fc] | – | ~0.08 | 0.0376 | –
huC27v1-LdFc (Fc fusion, Humanized VHH fused to human IgG1 Fc; bivalent homodimer; also called humanized form of the Fc fusion protein of antibody No. C27, variant 1) QVQLVESGGGLVQPGGSLRLSCAASGYIYSAYCMGWFRQAPGKERVGVAAISIGGGSTYYADSVKGRFTISQDNSKNTLYLQMNSLRAEDTAVYYCAADVIPTETCLGGSWSGPFGYWGQGTLVTVSS[omitted - human IgG1 Fc] | 0.0742 | – | – | –
huC27v2-LdFc (Fc fusion, Humanized VHH fused to human IgG1 Fc; bivalent homodimer; also called humanized form of the Fc fusion protein of antibody No. C27, variant 2) QVQLVESGGGLVQPGGSLRLSCAASGYIYSAYCMGWFRQAPGKERVGVAAISIGGGSTYYADSVKGRFTISRDNSKNTLYLQMNSLRAEDTAVYYCAADVIPTETCLGGSWSGPFGYWGQGTLVTVSS[omitted - human IgG1 Fc] | 0.0774 | – | – | –
huC27v4-LdFc (Fc fusion, Humanized VHH fused to human IgG1 Fc; bivalent homodimer; also called humanized form of the Fc fusion protein of antibody No. C27, variant 4) QVQLVESGGGLVQPGGSLRLSCAASGYIYSAYCMGWFRQAPGKGLEGVAAISIGGGSTYYADSVKGRFTISRDNSKNTLYLQMNSLRAEDTAVYYCAADVIPTETCLGGSWSGPFGYWGQGTLVTVSS[omitted - human IgG1 Fc] | 0.0745 | – | – | –
